About 220 (0.56%) of roughly 39,000 compounds showed activity. The list shows a part of the results.
Test system: Escherichia coli K-12 BW25113
Assay: relative growth (OD600 normalised to plate interquartile mean) (fraction); higher = less growth inhibition, active = 0.2 or less
Details: 50 µM; LB; incubation time: overnight (16-24 h)
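Note: static incubation at 37 °C against the wild-type strain, values averaged over two biological replicates.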

Structure (SMILES)	relative growth
CC(C)NC(=O)N(C)C[C@@H]1Oc2c(NS(=O)(=O)c3cccs3)cccc2C(=O)N([C@@H](C)CO)C[C@@H]1C	inactive: 0.984
C[C@H]1CCCCO[C@@H](CN(C)Cc2ccccc2)[C@@H](C)CN([C@@H](C)CO)C(=O)c2cc(NC(=O)Nc3cccc4ccccc34)ccc2O1	inactive: 1.04
C[C@@H]1CCCCO[C@H](CN(C)C(=O)Nc2ccc(C(F)(F)F)cc2)[C@H](C)CN([C@H](C)CO)C(=O)c2cc(NS(=O)(=O)c3cn(C)cn3)ccc2O1	inactive: 0.97
Cc1noc(C)c1NC(=O)Nc1cccc2c1O[C@@H](CN(C)Cc1ccc(Cl)c(Cl)c1)[C@H](C)CN([C@H](C)CO)C2=O	inactive: 1.04
Cn1c(N)c(NC(=O)c2cccs2)c(=O)[nH]c1=O	inactive: 0.998
C[C@H](CO)N1C[C@H](C)[C@H](CN(C)S(=O)(=O)c2ccc(F)cc2)Oc2ncc(C#Cc3ccccc3)cc2C1=O	inactive: 1.01
Cc1noc(C)c1NC(=O)N(C)C[C@H]1Oc2ccc(NS(=O)(=O)c3cn(C)cn3)cc2CC(=O)N([C@H](C)CO)C[C@@H]1C	inactive: 0.996
C[C@@H]1CCCCO[C@@H](CN(C)C(=O)Nc2ccc(F)cc2)[C@H](C)CN([C@H](C)CO)C(=O)c2cc(NC(=O)C3CCCCC3)ccc2O1	inactive: 1.05
C[C@@H]1CCCCO[C@@H](CN(C)S(=O)(=O)c2cn(C)cn2)[C@@H](C)CN([C@H](C)CO)C(=O)c2cc(NS(C)(=O)=O)ccc2O1	inactive: 0.983
O=C(C[C@@H]1CC[C@H](NC(=O)Cc2ccccn2)[C@H](CO)O1)NCCCN1CCOCC1	inactive: 0.992
C[C@H]1CN([C@@H](C)CO)C(=O)Cc2cc(NS(=O)(=O)c3ccc(F)cc3)ccc2O[C@@H]1CN(C)S(=O)(=O)c1ccccc1	inactive: 1
COCCOC(=O)N1C(=O)[C@@]2(c3cc(C#Cc4ccc(OC)cc4)ccc31)[C@H](C(=O)N1CCc3cc(OC)c(OC)cc3C1)[C@H]1C(=O)O[C@H](c3ccccc3)[C@H](c3ccccc3)N1[C@@H]2c1ccc(OCCO)cc1	inactive: 1.02
CCc1nc2ccc(C(=O)Nc3cccc(OCC(=O)N(C)C)c3)cn2c1N(CCN(C)C)CC1CC1	inactive: 0.984
CCC1OC(=O)C(C)C(=O)C(C)C(OC2OC(C)CC(N(C)C)C2O)C(C)(OC)CC(C)C(=O)C(C)C2N(CCCCn3cnc(-c4cccnc4)c3)C(=O)OC12C (configuration not stated)	active: 0.0499
C[C@H](CO)N1C[C@H](C)[C@@H](CN(C)C(=O)c2ccc(N3CCN(C)CC3)cc2)OCc2cnnn2CCCC1=O	inactive: 0.997
CCCN(C)C[C@@H]1OCCCC[C@@H](C)Oc2ccc(NC(=O)CCCCCC(=O)Nc3ccccc3N)cc2C(=O)N([C@H](C)CO)C[C@@H]1C	inactive: 0.959
COc1cnc(-n2cnc(C)n2)c2c1c(C(=O)C(=O)N1CCN(C(=O)c3ccccc3)CC1)cn2COP(=O)(O)O	inactive: 1.02
CCS(=O)(=O)Nc1ccc2c(c1)C(=O)N(C)[C@H]1CC[C@H](CC(=O)NCCCN3CCOCC3)O[C@@H]1CO2	inactive: 1.04
C[C@@H]1CCCCO[C@H](CN(C)C(=O)Nc2ccc(C(F)(F)F)cc2)[C@H](C)CN([C@H](C)CO)C(=O)c2cc(NC(=O)Nc3ccc(C(F)(F)F)cc3)ccc2O1	inactive: 1

Structure (SMILES)	relative growth
C[C@@H]1CN([C@@H](C)CO)C(=O)c2cc(NC(=O)Nc3ccc(C(F)(F)F)cc3)ccc2O[C@@H](C)CCCCO[C@H]1CN(C)S(=O)(=O)c1ccc(F)cc1	inactive: 0.996
Cc1noc(C)c1S(=O)(=O)Nc1ccc2c(c1)C(=O)N([C@H](C)CO)C[C@H](C)[C@@H](CN(C)C(=O)Nc1ccc(C(F)(F)F)cc1)OCCCC[C@@H](C)O2	inactive: 0.989
O=c1ccn([C@H]2C[C@H](O)[C@@H](CO)O2)c(=O)[nH]1	inactive: 1
C[C@H](CO)N1C[C@H](C)[C@@H](CN(C)Cc2cccc(O)c2)OCc2ccccc2-c2c(n(C)c3ccccc23)C1=O	inactive: 0.996
CN(C)C=C(C=[N+](C)C)c1[nH]ncc1N	inactive: 1.04
C[C@@H]1CCCCO[C@@H](CN(C)C(=O)Nc2ccccc2)[C@H](C)CN([C@H](C)CO)C(=O)c2cc(NS(=O)(=O)c3cccs3)ccc2O1	inactive: 1.03
C[C@@H]1CN([C@H](C)CO)C(=O)c2cc(NC(=O)Cc3cn(C)c4ccccc34)ccc2O[C@@H]1CN(C)C(=O)Nc1ccc(C(F)(F)F)cc1	inactive: 0.996
C[C@H]1CCCCO[C@@H](CN(C)CC2CCCCC2)[C@@H](C)CN([C@@H](C)CO)C(=O)c2cc(NC(=O)CCCN(C)C)ccc2O1	inactive: 0.932
O=S1(=O)CO[C@@H](c2ccccc2)CN1	inactive: 0.95
O=c1[nH]cc(F)c(=O)[nH]1	active: 0.196
C[C@H](CO)N1C[C@H](C)[C@H](CN(C)S(=O)(=O)c2cccc(F)c2)Oc2ncc(-c3ccccc3)cc2C1=O	inactive: 0.992
C[C@@H]1CN([C@@H](C)CO)C(=O)c2cc(NC(=O)NC3CCCCC3)ccc2O[C@@H](C)CCCCO[C@H]1CN(C)Cc1ccc2c(c1)OCO2	inactive: 0.998
CO[C@@H](CN(C)C(=O)c1ccc2c(c1)OCO2)[C@H](C)CN([C@@H](C)CO)S(=O)(=O)c1ccc(Cl)cc1	inactive: 1.01
C[C@H](CO)N1C[C@H](C)[C@H](CN(C)Cc2ccc3c(c2)OCO3)Oc2ccc(NC(=O)c3ccncc3)cc2C1=O	inactive: 1
Cc1ccc(S(=O)(=O)N(C)C[C@H]2Oc3ccc(NS(=O)(=O)c4ccccc4)cc3CC(=O)N([C@H](C)CO)C[C@@H]2C)cc1	inactive: 0.968
Cc1noc(C)c1S(=O)(=O)N(C)C[C@@H]1Oc2ccc(NS(=O)(=O)c3ccccc3)cc2C(=O)N([C@H](C)CO)C[C@@H]1C	inactive: 1.03
Br.NC(=O)C(c1ccccc1)(c1ccccc1)C1CCN(CCc2ccc3c(c2)CCO3)C1 (configuration not stated)	inactive: 1.11
C[C@H](CO)N1C[C@H](C)[C@H](CN(C)CC2CCOCC2)Oc2ncc(C#Cc3cccc(F)c3)cc2C1=O	inactive: 0.991

Reference: the supplement of paper PMC9446081
